Consider 153 variants from a collection of fitness landscapes (doi:10.1016/j.celrep.2020.107928).

Whole data set: some 81,000 sequences, median “one-hybrid fitness for binding parS DNA” near -0.17, cut for the highest 2% near 0.51. Some of the results follow. Where only a bound is given, the exact number is not on record here.

Sequences and labels used below:
B1: Caulobacter ParB omega fusion; a variant is named by its letters at X, in order, B8GW30 (parent)
chain: MESVVVGEPGMSEGRRGLGRGLSALLGEVDAAPAQAPGEQLGGSREAPIEILQRNPDQPRRTFREEDLEDLSNSIREKGVLQPILVRPSPDTAGEYQIVAGERAWRAAQRAGLKTVPIMVRELDDLAVLEIGIIENVQRADLNVLEEALSYKVLMEKFERTQENIAQTIGKSXSHVANXMRLLXLPDEVQSYLVSGELTAXHARAIAAAADPVALAKQIIEGGLSVRETEALARKAPNLSAGKSKGGRPPRVKDTDTQALESDLSSVLGLDVSIDHRGSTGTLTITYATLEQLDDLCNRLTRGI

Variants of B1 are the subject of the experiment. The experiment is described as follows: one-hybrid fitness for binding parS DNA (scaled: cognate 1, non-cognate 0); higher = stronger binding. The following applies: with parS DNA site. The method, boiled down: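 Pre- and post-selection plasmids were Illumina-sequenced, three replicate libraries were pooled, and any variant with under 10 reads was removed. The libraries were Caulobacter ParB with four specificity codons randomised, selected in E. coli USO through a HIS3 reporter whose site is 19 bp from the promoter. Cells grew 48 hours at 37°C on M9 without histidine, with 0.1 mM IPTG and 5 mM 3-AT. Fitness is the log change in variant-to-wild-type read ratio, rescaled against cognate and non-cognate.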
With RRAA, the “one-hybrid fitness for binding parS DNA” value turned out to be 0.724.

Turning to TWAK, the “one-hybrid fitness for binding parS DNA” value is not above 0.2.

On to KVFS, for which the “one-hybrid fitness for binding parS DNA” value was not above 0.2.

Take FNRY: the “one-hybrid fitness for binding parS DNA” value is not above 0.2.

Take SAQE: the “one-hybrid fitness for binding parS DNA” value was not above 0.2.

Take TIRR: the “one-hybrid fitness for binding parS DNA” value is not above 0.2.

In the case of PVQI, the “one-hybrid fitness for binding parS DNA” value is not above 0.2.

For HFMR, the “one-hybrid fitness for binding parS DNA” value is not above 0.2.

For PSEH, the “one-hybrid fitness for binding parS DNA” value is not above 0.2.

Regarding SPDG, the “one-hybrid fitness for binding parS DNA” value is not above 0.2.

On to THDG, for which the “one-hybrid fitness for binding parS DNA” value was not above 0.2.

Consider RLQW, for which the “one-hybrid fitness for binding parS DNA” value is 0.245.

Regarding MCLG, the “one-hybrid fitness for binding parS DNA” value was not above 0.2.

Consider KCKS, for which the “one-hybrid fitness for binding parS DNA” value is not above 0.2.

On to WIRE, for which the “one-hybrid fitness for binding parS DNA” value was not above 0.2.

As for CLMY, the “one-hybrid fitness for binding parS DNA” value is not above 0.2.

On to QTAR, for which the “one-hybrid fitness for binding parS DNA” value was not above 0.2.

For QKQD, the “one-hybrid fitness for binding parS DNA” value was not above 0.2.

Turning to QMKT, the “one-hybrid fitness for binding parS DNA” value was not above 0.2.

Turning to PECR, the “one-hybrid fitness for binding parS DNA” value is not above 0.2.

In the case of IAII, the “one-hybrid fitness for binding parS DNA” value is not above 0.2.

In the case of HTIE, the “one-hybrid fitness for binding parS DNA” value is not above 0.2.

As for KNNR, the “one-hybrid fitness for binding parS DNA” value was not above 0.2.

As to SSLN, the “one-hybrid fitness for binding parS DNA” value was not above 0.2.

On to CRHH, for which the “one-hybrid fitness for binding parS DNA” value is not above 0.2.

Consider MSGC, for which the “one-hybrid fitness for binding parS DNA” value is not above 0.2.

On to LPWT, for which the “one-hybrid fitness for binding parS DNA” value was not above 0.2.

PQKV: the “one-hybrid fitness for binding parS DNA” value was not above 0.2.

As to VYPH, the “one-hybrid fitness for binding parS DNA” value was not above 0.2.

Take DGKW: the “one-hybrid fitness for binding parS DNA” value is not above 0.2.

Consider FQTL, for which the “one-hybrid fitness for binding parS DNA” value is not above 0.2.

In the case of SYDG, the “one-hybrid fitness for binding parS DNA” value was not above 0.2.

Regarding SPKN, the “one-hybrid fitness for binding parS DNA” value is not above 0.2.

Turning to IFSR, the “one-hybrid fitness for binding parS DNA” value was not above 0.2.

Regarding CDWV, the “one-hybrid fitness for binding parS DNA” value was not above 0.2.

On to AGPM, for which the “one-hybrid fitness for binding parS DNA” value was not above 0.2.

With DRAC, the “one-hybrid fitness for binding parS DNA” value is not above 0.2.

As to SAMR, the “one-hybrid fitness for binding parS DNA” value is not above 0.2.

Consider VFTW, for which the “one-hybrid fitness for binding parS DNA” value is not above 0.2.

For AFHA, the “one-hybrid fitness for binding parS DNA” value is not above 0.2.

For the variant ARNT, the “one-hybrid fitness for binding parS DNA” value was not above 0.2.

Take QQLL: the “one-hybrid fitness for binding parS DNA” value was not above 0.2.

As for FQHS, the “one-hybrid fitness for binding parS DNA” value was not above 0.2.

WPSP: the “one-hybrid fitness for binding parS DNA” value was not above 0.2.

LHPL: the “one-hybrid fitness for binding parS DNA” value is not above 0.2.

In the case of YGQR, the “one-hybrid fitness for binding parS DNA” value was not above 0.2.

In the case of LSQS, the “one-hybrid fitness for binding parS DNA” value was not above 0.2.

Consider RQTQ, for which the “one-hybrid fitness for binding parS DNA” value is not above 0.2.

Consider DHLM, for which the “one-hybrid fitness for binding parS DNA” value was not above 0.2.

For the variant KKTE, the “one-hybrid fitness for binding parS DNA” value is not above 0.2.

With TYRC, the “one-hybrid fitness for binding parS DNA” value is not above 0.2.

For PHID, the “one-hybrid fitness for binding parS DNA” value was not above 0.2.

TPLD: the “one-hybrid fitness for binding parS DNA” value was not above 0.2.

Consider LARQ, for which the “one-hybrid fitness for binding parS DNA” value is not above 0.2.

As for PAGP, the “one-hybrid fitness for binding parS DNA” value is not above 0.2.

Consider AQAF, for which the “one-hybrid fitness for binding parS DNA” value was not above 0.2.

In the case of MIHR, the “one-hybrid fitness for binding parS DNA” value is not above 0.2.

As to DCIS, the “one-hybrid fitness for binding parS DNA” value was not above 0.2.

Turning to TCVA, the “one-hybrid fitness for binding parS DNA” value was not above 0.2.

With WDSR, the “one-hybrid fitness for binding parS DNA” value is not above 0.2.

With PQIA, the “one-hybrid fitness for binding parS DNA” value is not above 0.2.

For the variant DSLE, the “one-hybrid fitness for binding parS DNA” value is not above 0.2.

Take PSTW: the “one-hybrid fitness for binding parS DNA” value is not above 0.2.

In the case of DYLC, the “one-hybrid fitness for binding parS DNA” value was not above 0.2.

Regarding MAQC, the “one-hybrid fitness for binding parS DNA” value is not above 0.2.

With VYPL, the “one-hybrid fitness for binding parS DNA” value is not above 0.2.

For the variant QRWQ, the “one-hybrid fitness for binding parS DNA” value is not above 0.2.

As to NELC, the “one-hybrid fitness for binding parS DNA” value is not above 0.2.

Take YFMG: the “one-hybrid fitness for binding parS DNA” value was not above 0.2.

In the case of FVNC, the “one-hybrid fitness for binding parS DNA” value is not above 0.2.

For the variant EAVT, the “one-hybrid fitness for binding parS DNA” value was not above 0.2.

Regarding QYWC, the “one-hybrid fitness for binding parS DNA” value was not above 0.2.

SSEQ: the “one-hybrid fitness for binding parS DNA” value was not above 0.2.

Turning to HSPS, the “one-hybrid fitness for binding parS DNA” value was not above 0.2.

Turning to TIQS, the “one-hybrid fitness for binding parS DNA” value was not above 0.2.

As for PVCC, the “one-hybrid fitness for binding parS DNA” value was not above 0.2.

As to TDAG, the “one-hybrid fitness for binding parS DNA” value was not above 0.2.

As for KVRS, the “one-hybrid fitness for binding parS DNA” value was not above 0.2.

CTLQ: the “one-hybrid fitness for binding parS DNA” value was not above 0.2.

For the variant KCNC, the “one-hybrid fitness for binding parS DNA” value was not above 0.2.

On to IASD, for which the “one-hybrid fitness for binding parS DNA” value was not above 0.2.

With TYCG, the “one-hybrid fitness for binding parS DNA” value was not above 0.2.

Turning to MRVI, the “one-hybrid fitness for binding parS DNA” value is not above 0.2.

Take EPSL: the “one-hybrid fitness for binding parS DNA” value was not above 0.2.

As for RDSM, the “one-hybrid fitness for binding parS DNA” value is not above 0.2.

For the variant EMTC, the “one-hybrid fitness for binding parS DNA” value was not above 0.2.

In the case of PLLG, the “one-hybrid fitness for binding parS DNA” value was not above 0.2.

Regarding INLI, the “one-hybrid fitness for binding parS DNA” value is not above 0.2.

Regarding GGSG, the “one-hybrid fitness for binding parS DNA” value is not above 0.2.

Take REWC: the “one-hybrid fitness for binding parS DNA” value was not above 0.2.

Regarding YKQA, the “one-hybrid fitness for binding parS DNA” value is not above 0.2.

Turning to PSMH, the “one-hybrid fitness for binding parS DNA” value was not above 0.2.

With KFST, the “one-hybrid fitness for binding parS DNA” value is not above 0.2.

Regarding NNPE, the “one-hybrid fitness for binding parS DNA” value is not above 0.2.

In the case of SIIT, the “one-hybrid fitness for binding parS DNA” value was not above 0.2.

In the case of NDHT, the “one-hybrid fitness for binding parS DNA” value was not above 0.2.

On to TWFV, for which the “one-hybrid fitness for binding parS DNA” value is not above 0.2.

On to CMKG, for which the “one-hybrid fitness for binding parS DNA” value is not above 0.2.

On to LSEI, for which the “one-hybrid fitness for binding parS DNA” value is not above 0.2.

As to YSML, the “one-hybrid fitness for binding parS DNA” value is not above 0.2.

NRFQ: the “one-hybrid fitness for binding parS DNA” value was not above 0.2.

Turning to LVEA, the “one-hybrid fitness for binding parS DNA” value was not above 0.2.

As for NRYF, the “one-hybrid fitness for binding parS DNA” value was not above 0.2.

Consider HRYV, for which the “one-hybrid fitness for binding parS DNA” value is not above 0.2.

Take VSHE: the “one-hybrid fitness for binding parS DNA” value was not above 0.2.

In the case of TLES, the “one-hybrid fitness for binding parS DNA” value is not above 0.2.

In the case of PRDN, the “one-hybrid fitness for binding parS DNA” value was not above 0.2.

On to NSAR, for which the “one-hybrid fitness for binding parS DNA” value is not above 0.2.

Regarding KLRL, the “one-hybrid fitness for binding parS DNA” value was not above 0.2.

Regarding STRF, the “one-hybrid fitness for binding parS DNA” value is not above 0.2.

As to CMVG, the “one-hybrid fitness for binding parS DNA” value is not above 0.2.

On to CGTY, for which the “one-hybrid fitness for binding parS DNA” value is not above 0.2.

On to VFSV, for which the “one-hybrid fitness for binding parS DNA” value was not above 0.2.

For FPEG, the “one-hybrid fitness for binding parS DNA” value was not above 0.2.

Take MPGG: the “one-hybrid fitness for binding parS DNA” value was not above 0.2.

Regarding GKPG, the “one-hybrid fitness for binding parS DNA” value was not above 0.2.

On to IRNM, for which the “one-hybrid fitness for binding parS DNA” value is not above 0.2.

As to TDAV, the “one-hybrid fitness for binding parS DNA” value is not above 0.2.

Consider PSHR, for which the “one-hybrid fitness for binding parS DNA” value is not above 0.2.

Take HPQT: the “one-hybrid fitness for binding parS DNA” value is not above 0.2.

For the variant HQMM, the “one-hybrid fitness for binding parS DNA” value is not above 0.2.

In the case of CSMT, the “one-hybrid fitness for binding parS DNA” value is not above 0.2.

For IKER, the “one-hybrid fitness for binding parS DNA” value is not above 0.2.

As for RHGH, the “one-hybrid fitness for binding parS DNA” value is not above 0.2.

Consider TNDT, for which the “one-hybrid fitness for binding parS DNA” value is not above 0.2.

Regarding EEVG, the “one-hybrid fitness for binding parS DNA” value is not above 0.2.

Regarding RTLR, the “one-hybrid fitness for binding parS DNA” value was not above 0.2.

ETLK: the “one-hybrid fitness for binding parS DNA” value was not above 0.2.

Consider NELS, for which the “one-hybrid fitness for binding parS DNA” value was not above 0.2.

QHCS: the “one-hybrid fitness for binding parS DNA” value was not above 0.2.

SFRL: the “one-hybrid fitness for binding parS DNA” value was not above 0.2.

As for TGGC, the “one-hybrid fitness for binding parS DNA” value was not above 0.2.

In the case of LPPV, the “one-hybrid fitness for binding parS DNA” value was not above 0.2.

Take TYST: the “one-hybrid fitness for binding parS DNA” value was not above 0.2.

On to KVQA, for which the “one-hybrid fitness for binding parS DNA” value is not above 0.2.

For the variant GRFC, the “one-hybrid fitness for binding parS DNA” value is not above 0.2.

In the case of FSKF, the “one-hybrid fitness for binding parS DNA” value was not above 0.2.

In the case of AALY, the “one-hybrid fitness for binding parS DNA” value was not above 0.2.

Regarding LMVA, the “one-hybrid fitness for binding parS DNA” value was not above 0.2.

As for NLIG, the “one-hybrid fitness for binding parS DNA” value is not above 0.2.

As for LQRH, the “one-hybrid fitness for binding parS DNA” value was not above 0.2.

For YDNH, the “one-hybrid fitness for binding parS DNA” value was not above 0.2.

Turning to RGIG, the “one-hybrid fitness for binding parS DNA” value came out at 0.47.

On to VQRH, for which the “one-hybrid fitness for binding parS DNA” value is not above 0.2.

Turning to SMSE, the “one-hybrid fitness for binding parS DNA” value was not above 0.2.

Take RSVV: the “one-hybrid fitness for binding parS DNA” value was not above 0.2.

Regarding IKSD, the “one-hybrid fitness for binding parS DNA” value was not above 0.2.

EPRS: the “one-hybrid fitness for binding parS DNA” value is not above 0.2.

As to NTHF, the “one-hybrid fitness for binding parS DNA” value is not above 0.2.

On to LRTW, for which the “one-hybrid fitness for binding parS DNA” value was not above 0.2.

As to SHEG, the “one-hybrid fitness for binding parS DNA” value is not above 0.2.

Consider QHTT, for which the “one-hybrid fitness for binding parS DNA” value is not above 0.2.

As to VHER, the “one-hybrid fitness for binding parS DNA” value was not above 0.2.
